The full ranking holds about 110,000 compounds; the median of “z-score” is about -0.1, and the highest 2% start at about 2. The list shows a part of the results.
biological target: Metabotropic glutamate receptor 8 (Rattus norvegicus) (UniProt P70579); experiment: mGluR8 Gi/Go-coupled signaling modulation – cell-based, rat, thallium flux, HTS, primary screen (AID 488969); details: HEK293 rat mGluR8, GIRK (G protein-gated inwardly rectifying potassium channel) thallium flux, FluoZin2; at 10 µM; stronger effect = higher value; submaximal glutamate (EC20) added with thallium
Sequence of UniProt P70579 (P70579 whole entry, looked up): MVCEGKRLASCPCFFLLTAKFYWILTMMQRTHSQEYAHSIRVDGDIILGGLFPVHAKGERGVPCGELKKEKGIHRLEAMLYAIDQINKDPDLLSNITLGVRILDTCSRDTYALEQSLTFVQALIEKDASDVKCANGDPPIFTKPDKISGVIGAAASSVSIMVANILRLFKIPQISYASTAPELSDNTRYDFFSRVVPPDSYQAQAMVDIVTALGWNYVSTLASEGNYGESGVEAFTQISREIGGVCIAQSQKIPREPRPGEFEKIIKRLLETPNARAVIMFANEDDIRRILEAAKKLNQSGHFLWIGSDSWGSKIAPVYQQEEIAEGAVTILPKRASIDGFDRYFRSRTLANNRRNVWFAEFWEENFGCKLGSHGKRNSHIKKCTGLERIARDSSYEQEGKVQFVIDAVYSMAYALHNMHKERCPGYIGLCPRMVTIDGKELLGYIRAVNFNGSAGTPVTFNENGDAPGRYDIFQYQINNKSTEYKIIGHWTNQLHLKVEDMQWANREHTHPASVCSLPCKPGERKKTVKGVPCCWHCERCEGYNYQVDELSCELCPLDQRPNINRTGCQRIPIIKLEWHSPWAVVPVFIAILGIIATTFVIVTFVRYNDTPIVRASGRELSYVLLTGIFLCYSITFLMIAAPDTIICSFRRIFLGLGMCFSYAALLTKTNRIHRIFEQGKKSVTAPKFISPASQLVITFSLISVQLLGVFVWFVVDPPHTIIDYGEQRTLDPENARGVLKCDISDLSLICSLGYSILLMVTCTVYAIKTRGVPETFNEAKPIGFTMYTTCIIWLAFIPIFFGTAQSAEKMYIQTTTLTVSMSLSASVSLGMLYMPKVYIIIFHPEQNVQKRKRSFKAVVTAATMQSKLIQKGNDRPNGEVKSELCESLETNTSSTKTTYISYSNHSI

| SMILES | z-score |
| --- | --- |
| CC1=C(C(=O)Nc2ccccc2)C(c2cccc([N+](=O)[O-])c2)Nc2nc3ccccc3n21 (centres undefined) | -0.0653 |
| COC(=O)Nc1nnc(SCc2ccc(C)cc2)s1 | 0.0636 |
| COc1ccc(-c2nn(-c3ccccc3)cc2/C=C/C(=O)OCC(=O)Nc2cccc(C#N)c2)cc1 | 0.732 |
| O=C(c1ccc(CS(=O)(=O)c2ccc(Br)cc2)o1)N1CCCCCC1 | -0.0821 |
| COc1cc(NC(=O)c2ccc(C)cc2)c(OC)cc1NC(=O)CN1CCOCC1 | -0.672 |
| N#C[C@H]1[C@H](c2ccccc2)[C@](C#N)(C(=O)c2ccccc2)[C@@H]2C=Cc3ccccc3N21 | -0.88 |
| Cc1ccc(NC(=O)CSc2nc(-c3ccco3)cc(C(F)(F)F)n2)cc1C | -0.269 |
| CCOC(=O)c1cc(NC(=O)CSc2nnc(CN3CCOCC3)n2C)ccc1Cl | -0.865 |
| Cc1nn(C)cc1/C=C/C(=O)c1ccc(O)cc1 | -0.127 |
| O=c1c2cnn(-c3ccccc3)c2nc(-c2cccs2)n1-c1cccc(Cl)c1 | 0.0379 |
| CC(C)(C)n1nnnc1C(c1cccs1)N(Cc1ccccc1)Cc1cccnc1 (centres undefined) | -0.249 |
| O=C(Cc1ccc(Cl)cc1)NCCN1CCCC1 | -0.135 |
| O=C(OCCN1C(=O)c2ccccc2C1=O)c1ccc(S(=O)(=O)N2CCCCCC2)cc1 | -0.669 |
| C/C(CCc1oc2ccccc2c1-c1ccc(C)o1)=N/O | -1 |
| CCOC(=O)c1nn(-c2ccccc2F)c(-c2ccccc2)c1C(=O)c1ccccc1 | -0.234 |
| Cc1ccc(CNCc2cc3c(C(C)(C)C)nn(-c4ccccc4)c3[nH]c2=O)cc1 | -0.85 |
| COc1ccc(OC)c(S(=O)(=O)Nc2cccc(F)c2)c1 | -0.305 |
| CC(C)c1ccc(NC(=O)CCNS(=O)(=O)c2cccc3nsnc23)cc1 | 0.063 |
| ON=C1/C(=N\O)CC2(C/C1=N/O)OCCO2 | -0.211 |
| CCCCNC(=S)N(C)/N=C/c1c(C)[nH]c2ccccc12 | -0.214 |
| O=C(O)C=C1C2CC3CC(C2)CC1C3 | 0.219 |
| O=C(CCCOc1ccccc1)Nc1cccc(C(=O)O)c1 | -0.363 |
| COc1cc(NC(=O)C/C(C)=N/NC(=O)C(OC)c2ccccc2)c(OC)cc1Cl (centres undefined) | -0.317 |
| CC(=O)Nc1nonc1-c1nc2ccccc2n1Cc1ccccn1 | -1.12 |
| Cn1c(N)c(C(=O)COC(=O)c2cccc(S(=O)(=O)N3CCCCC3)c2)c(=O)n(C)c1=O | -0.62 |
| Cc1ccccc1NS(=O)(=O)c1ccc2[nH]cc(C(=O)NCCCN3CCOCC3)c(=O)c2c1 | -0.131 |
| COC(=O)CN(C(=S)Nc1ccccc1)C1CC(=O)N(c2ccc(OC)cc2)C1=O (centres undefined) | -0.274 |
| Cc1cc2nnc(SCC(=O)NCc3cccs3)n2c(N)n1 | -0.811 |
| COc1cccc(C(=O)N(Cc2nc(-c3ccc(C)cc3)no2)C(C)C)c1 | 0.154 |

Reference: PubChem BioAssay AID488969 (Vanderbilt High Throughput Screening Facility, 2010)
